Test results taken from article PMC10020501.
Changes are numbered by the printed parent chain. These are yes or no findings as the source states them, for the method shown. Binding seen in cells or lysates may run through a third protein. Some binding calls cover weakened binding; strength is not graded here. Where a sequence is shown, tags or fusion partners need not be part of it.

How the values were obtained:
Experiment in all cases: co-IP; Flag-tagged TBK1 variants precipitated with anti-Flag M2 magnetic agarose beads from lysates of TBK1-deficient THP1-Dual cells; TAP lysis buffer (100 mM NaCl, 50 mM Tris/HCl, 1.5 mM MgCl2, 5% glycerol, 0.5% IGEPAL CA-630, pH 7.5), 4 h at 4°C; elution with 3× Flag peptide; endogenous partners detected by immunoblot
[1] = biological target: T1, Flag-tagged TBK1 K694E (human) (UniProt Q9UHD2)
T1 sequence: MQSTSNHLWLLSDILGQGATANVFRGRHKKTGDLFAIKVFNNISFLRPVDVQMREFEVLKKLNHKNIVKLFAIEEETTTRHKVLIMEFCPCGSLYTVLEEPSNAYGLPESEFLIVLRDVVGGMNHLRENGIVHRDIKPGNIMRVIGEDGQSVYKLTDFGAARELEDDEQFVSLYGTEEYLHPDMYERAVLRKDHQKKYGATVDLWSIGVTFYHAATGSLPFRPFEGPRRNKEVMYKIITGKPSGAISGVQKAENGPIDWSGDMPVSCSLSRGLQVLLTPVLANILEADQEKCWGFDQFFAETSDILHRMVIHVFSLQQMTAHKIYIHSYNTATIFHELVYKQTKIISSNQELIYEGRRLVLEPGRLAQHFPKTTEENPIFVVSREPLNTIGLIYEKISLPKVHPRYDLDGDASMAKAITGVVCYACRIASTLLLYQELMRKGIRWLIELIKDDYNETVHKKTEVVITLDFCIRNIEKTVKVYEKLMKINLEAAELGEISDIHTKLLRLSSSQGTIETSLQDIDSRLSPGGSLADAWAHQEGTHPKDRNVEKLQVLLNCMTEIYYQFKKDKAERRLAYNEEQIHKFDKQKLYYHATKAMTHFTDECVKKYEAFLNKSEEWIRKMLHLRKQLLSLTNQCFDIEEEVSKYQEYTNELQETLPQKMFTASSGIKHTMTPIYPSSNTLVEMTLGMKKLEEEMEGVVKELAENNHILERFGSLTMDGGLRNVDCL

[2] = biological target: T2, Flag-tagged TBK1 L693A (human) (UniProt Q9UHD2)
T2 sequence: T1 sequence with L693A, E694K

[3] = biological target: T3, Flag-tagged TBK1 L704A (human) (UniProt Q9UHD2)
T3 sequence: T1 sequence with E694K, L704A

[4] = biological target: T4, Flag-tagged TBK1 WT (TANK-binding kinase 1) (human) (UniProt Q9UHD2)
T4 sequence: T1 sequence with E694K

B1: TRAF family member-associated NF-κB activator (TANK) (protein, UniProt Q92844 1-425)
chain: MDKNIGEQLNKAYEAFRQACMDRDSAVKELQQKTENYEQRIREQQEQLSLQQTIIDKLKSQLLLVNSTQDNNYGCVPLLEDSETRKNNLTLDQPQDKVISGIAREKLPKVRRQEVSSPRKETSARSLGSPLLHERGNIEKTFWDLKEEFHKICMLAKAQKDHLSKLNIPDTATETQCSVPIQCTDKTDKQEALFKPQAKDDINRGAPSITSVTPRGLCRDEEDTSFESLSKFNVKFPPMDNDSTFLHSTPERPGILSPATSEAVCQEKFNMEFRDNPGNFVKTEETLFEIQGIDPIASAIQNLKTTDKTKPSNLVNTCIRTTLDRAACLPPGDHNALYVNSFPLLDPSDAPFPSLDSPGKAIRGPQQPIWKPFPNQDSDSVVLSGTDSELHIPRVCEFCQAVFPPSITSRGDFLRHLNSHFNGET
binding [1]: no binding
binding [2]: no binding
binding [3]: no binding
binding [4]: binds

B2: IκB kinase ϵ (IKKϵ), endogenous (enzyme, UniProt Q14164 1-716)
chain: MQSTANYLWHTDDLLGQGATASVYKARNKKSGELVAVKVFNTTSYLRPREVQVREFEVLRKLNHQNIVKLFAVEETGGSRQKVLVMEYCSSGSLLSVLESPENAFGLPEDEFLVVLRCVVAGMNHLRENGIVHRDIKPGNIMRLVGEEGQSIYKLTDFGAARELDDDEKFVSVYGTEEYLHPDMYERAVLRKPQQKAFGVTVDLWSIGVTLYHAATGSLPFIPFGGPRRNKEIMYRITTEKPAGAIAGAQRRENGPLEWSYTLPITCQLSLGLQSQLVPILANILEVEQAKCWGFDQFFAETSDILQRVVVHVFSLSQAVLHHIYIHAHNTIAIFQEAVHKQTSVAPRHQEYLFEGHLCVLEPSVSAQHIAHTTASSPLTLFSTAIPKGLAFRDPALDVPKFVPKVDLQADYNTAKGVLGAGYQALRLARALLDGQELMFRGLHWVMEVLQATCRRTLEVARTSLLYLSSSLGTERFSSVAGTPEIQELKAAAELRSRLRTLAEVLSRCSQNITETQESLSSLNRELVKSRDQVHEDRSIQQIQCCLDKMNFIYKQFKKSRMRPGLGYNEEQIHKLDKVNFSHLAKRLLQVFQEECVQKYQASLVTHGKRMRVVHETRNHLRLVGCSVAACNTEAQGVQESLSKLLEELSHQLLQDRAKGAQASPPPIAPYPSPTRKDLLLHMQELCEGMKLLASDLLDNNRIIERLNRVPAPPDV
binding [1]: binds
binding [2]: binds
binding [3]: binds
binding [4]: binds
